Reference: the supplement of paper PMC3334620
Over roughly 33,000 sequences, “E-score (-0.5 to 0.5)” has its median near -0.017; the highest 2% begin near 0.3. The list shows a part of the results.

Molecular target: T1, Sut1 (UniProt P53032)
T1 sequence: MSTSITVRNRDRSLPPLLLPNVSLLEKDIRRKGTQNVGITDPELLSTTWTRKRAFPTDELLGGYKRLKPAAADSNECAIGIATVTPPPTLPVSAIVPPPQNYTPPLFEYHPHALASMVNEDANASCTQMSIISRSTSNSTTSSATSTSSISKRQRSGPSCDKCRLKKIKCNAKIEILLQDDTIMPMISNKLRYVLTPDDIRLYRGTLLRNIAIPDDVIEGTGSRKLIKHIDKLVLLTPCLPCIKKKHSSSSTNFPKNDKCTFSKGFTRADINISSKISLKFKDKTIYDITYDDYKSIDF
Test: PBM E-score (8-mer binding enrichment) (E-score (-0.5 to 0.5)); higher = stronger / more preferred TF binding; most listed sequences are background and not binding sites
Details: protein concentration: 200 nM; construct: GST-full length
Experimental: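 Universal 'all 10-mer' protein binding microarrays (Agilent AMADID 015681) probed with GST-tagged S. cerevisiae TFs (full-length or DBD) made by in vitro transcription/translation (PURExpress), about 100-200 nM. Bound TF was detected with fluorescent anti-GST. Each ungapped 8-mer (which stands for itself and its reverse complement) is scored by the PBM enrichment score (E-score), a modified Wilcoxon-Mann-Whitney statistic from -0.5 to +0.5, computed with the Universal PBM Analysis Suite. Scale: above 0.35 generally sequence-specific binding.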

Compared with CGCGTATA, CGGATTAA is higher in “PBM E-score” value: -0.0789 for the first, 0.134 for the second.

Compared with CCGTGGAC, CACAAACG is higher in “PBM E-score” value: -0.0896 for the first, 0.127 for the second.

Going from GCAACTAC to CGAGGAGC, the “PBM E-score” value falls from 0.0638 to -0.0993.

Compared with TAGAACAA, GTTACCGA is lower in “PBM E-score” value: 0.056 for the first, -0.0528 for the second.

Going from CTCTATGC to CACGACTA, the “PBM E-score” value falls from -0.131 to -0.255.

Going from GCTAGCCA to CACGGGCC, the “PBM E-score” value rises from -0.263 to -0.215.

Compared with AACAACTA, TCCAGCGA is lower in “PBM E-score” value: 0.26 for the first, -0.0484 for the second.

Compared with ACTCCTAT, CACCGTAG is lower in “PBM E-score” value: 0.0886 for the first, -0.0954 for the second.

First: CGGGTACA
Second: CGCCCGCG
The “PBM E-score” value of the first is higher: -0.0947 for the first, -0.188 for the second.

Going from CGTTGGTC to CCTTTCGC, the “PBM E-score” value falls from 0.037 to -0.0895.

Compared with GGCCTATA, CCATCGCA is higher in “PBM E-score” value: -0.236 for the first, -0.183 for the second.

Compared with CTACTCTC, ATACGCTC is higher in “PBM E-score” value: -0.0287 for the first, 0.0983 for the second.

Compared with AGTGCGGC, AATTTTAG is higher in “PBM E-score” value: -0.0836 for the first, 0.0313 for the second.

Going from CAAGTCGC to CCATCTCA, the “PBM E-score” value rises from -0.294 to -0.197.

First: ACCTTCAA
Second: ACGAGCAC
The “PBM E-score” value of the first is higher: 0.0614 for the first, 0.058 for the second.

First: AGAAATTG
Second: GTATCATA
The “PBM E-score” value of the first is higher: 0.268 for the first, 0.241 for the second.

First: CTGGACTC
Second: AAGCCTTC
The “PBM E-score” value of the first is higher: 0.0665 for the first, -0.11 for the second.

Compared with CGGTGAAG, ACGTCAGA is lower in “PBM E-score” value: -0.174 for the first, -0.193 for the second.

Going from ATAGCCCC to GCCAAGCA, the “PBM E-score” value rises from -0.325 to -0.237.

Going from CAGATCAA to CCATCAAA, the “PBM E-score” value rises from -0.271 to 0.0607.

Going from GCACACGC to AAATAACA, the “PBM E-score” value rises from -0.227 to 0.204.

Compared with CTAATACA, GATACGGC is lower in “PBM E-score” value: 0.228 for the first, -0.104 for the second.

First: TAATCTAA
Second: CCAGAAGC
The “PBM E-score” value of the first is higher: 0.236 for the first, -0.144 for the second.

Going from CCTTCCCA to AGTGGGAT, the “PBM E-score” value rises from -0.0931 to 0.0335.

First: AAGACCCA
Second: GTGTGGTA
The “PBM E-score” value of the first is lower: -0.199 for the first, 0.0338 for the second.

Compared with GTGCTCGA, AAACGCAA is higher in “PBM E-score” value: -0.0737 for the first, 0.162 for the second.

First: GAGCATCC
Second: CGCAATAC
The “PBM E-score” value of the first is lower: -0.069 for the first, -0.0615 for the second.

First: AGTGCAAC
Second: GTGGTGCA
The “PBM E-score” value of the first is higher: 0.00453 for the first, -0.0425 for the second.

Compared with GCCGATCC, GCCAAATA is higher in “PBM E-score” value: -0.192 for the first, 0.0459 for the second.

Going from AACCAGAC to CCATCTGC, the “PBM E-score” value rises from -0.226 to -0.0237.

Going from ATACGGCC to CGGACATA, the “PBM E-score” value rises from 0.0623 to 0.433.

First: CCCCATCG
Second: GAGATGAC
The “PBM E-score” value of the first is lower: -0.0507 for the first, 0.0248 for the second.

Compared with GGTCGATA, CGACTCCA is lower in “PBM E-score” value: -0.0842 for the first, -0.132 for the second.

First: TATTAGCA
Second: ACATGCAC
The “PBM E-score” value of the first is higher: 0.21 for the first, -0.0846 for the second.

First: GACAGCCC
Second: CCGTAGGC
The “PBM E-score” value of the first is lower: -0.261 for the first, -0.11 for the second.

Compared with GTCACCGA, CTGATTAC is higher in “PBM E-score” value: -0.151 for the first, 0.0972 for the second.

First: GGATAGTA
Second: CTAGGGAA
The “PBM E-score” value of the first is higher: 0.246 for the first, -0.0592 for the second.

Going from CTATTGGA to CTCGACAC, the “PBM E-score” value falls from 0.16 to -0.208.

Going from CGTTGGTA to CTGTATTA, the “PBM E-score” value rises from 0.0587 to 0.149.

First: AGTCTCAT
Second: CACATGTA
The “PBM E-score” value of the first is lower: 0.0486 for the first, 0.0946 for the second.

First: CCCAGTTA
Second: ACCGCCCG
The “PBM E-score” value of the first is higher: -0.142 for the first, -0.16 for the second.

Compared with AAGTCGGG, ATAATATC is higher in “PBM E-score” value: -0.0631 for the first, 0.291 for the second.

Going from GACTTTGA to CCCAGTGA, the “PBM E-score” value falls from 0.0429 to -0.194.

First: CGCAACAC
Second: GCGCAACC
The “PBM E-score” value of the first is higher: -0.0862 for the first, -0.15 for the second.

Compared with CCGATATA, GTTCCCAA is lower in “PBM E-score” value: 0.183 for the first, -0.0964 for the second.

Compared with CGCTAGCC, CTCCTCAA is higher in “PBM E-score” value: -0.212 for the first, -0.0732 for the second.

Compared with AATTATTA, CTCCCCAA is lower in “PBM E-score” value: 0.305 for the first, -0.148 for the second.
